# Data published in the supplement of paper PMC3334620.
# Over roughly 33,000 sequences, “E-score (-0.5 to 0.5)” has its median near -0.012; the highest 2% begin near 0.29. Some of the results follow.
# Biological target: T1, Ybr033w (UniProt P38073)
# T1 sequence: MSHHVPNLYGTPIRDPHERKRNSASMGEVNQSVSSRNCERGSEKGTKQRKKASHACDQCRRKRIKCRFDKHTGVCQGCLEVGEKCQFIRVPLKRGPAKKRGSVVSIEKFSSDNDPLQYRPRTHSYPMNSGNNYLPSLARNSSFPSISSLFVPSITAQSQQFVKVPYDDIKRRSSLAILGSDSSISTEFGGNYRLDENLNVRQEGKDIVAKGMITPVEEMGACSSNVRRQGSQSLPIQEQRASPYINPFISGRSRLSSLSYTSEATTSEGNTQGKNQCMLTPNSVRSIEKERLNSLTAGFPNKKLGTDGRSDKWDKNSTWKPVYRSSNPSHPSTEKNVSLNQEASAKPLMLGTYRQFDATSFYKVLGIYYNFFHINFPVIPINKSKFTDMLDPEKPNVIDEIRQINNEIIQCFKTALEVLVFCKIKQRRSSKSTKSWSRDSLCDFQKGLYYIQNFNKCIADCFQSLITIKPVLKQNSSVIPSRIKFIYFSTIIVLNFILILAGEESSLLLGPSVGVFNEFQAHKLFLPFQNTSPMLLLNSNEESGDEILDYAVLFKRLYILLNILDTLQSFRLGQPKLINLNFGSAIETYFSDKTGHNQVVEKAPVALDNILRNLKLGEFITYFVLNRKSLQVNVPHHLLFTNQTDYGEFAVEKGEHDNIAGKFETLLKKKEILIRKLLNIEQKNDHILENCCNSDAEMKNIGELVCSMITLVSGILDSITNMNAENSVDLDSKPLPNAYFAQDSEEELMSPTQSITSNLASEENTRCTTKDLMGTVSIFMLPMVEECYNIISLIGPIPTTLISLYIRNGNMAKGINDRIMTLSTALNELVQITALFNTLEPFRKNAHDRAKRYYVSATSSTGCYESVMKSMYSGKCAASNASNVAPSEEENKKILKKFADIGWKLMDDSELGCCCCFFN
# Assay: PBM E-score (8-mer binding enrichment) (E-score (-0.5 to 0.5)); higher = stronger / more preferred TF binding; most listed sequences are background and not binding sites
# Conditions: protein concentration: 200 nM; construct: GST-full length
# Summary of the method: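 Yeast transcription factors carrying a GST tag, as full-length proteins or DNA-binding domains, were produced by PURExpress in vitro transcription/translation. About 100-200 nM protein was applied to universal all-10-mer Agilent arrays, double-stranded by primer extension on fresh or once-stripped slides. Bound protein was detected with fluorescent anti-GST, and scans were normalised with masliner. The Universal PBM Analysis Suite gave each ungapped eight-base word, pooled with its reverse complement, an E-score, a modified Wilcoxon-Mann-Whitney statistic.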
row,Sequence,PBM E-score
1,AAGCGATT,0.131
2,GAATGGTC,-0.104
3,ACAATGGT,-0.0786
4,CCATAGTC,0.0428
5,ACCTGTAC,-0.0813
6,ATTCCAGG,0.139
7,AACCCCAA,0.0403
8,GATAAGTA,0.205
9,AGACCTCG,0.105
10,CCCGTCCA,-0.158
11,CGAGATCA,0.0446
12,CATTGCCA,0.041
13,CCACTCCA,0.0647
14,CCGCGTGA,-0.04
15,CTTCGGGA,0.0436
16,AGCCGACG,-0.209
17,TCAAGCAA,0.00033
18,AGTACCTG,0.0961
19,CCATTCTA,0.0369
20,ACTTCGTG,0.014
21,AGCTACAT,-0.021
22,ACGCGGCT,-0.0299
23,TATCGTCA,-0.0459
24,CGAAAATC,0.222
25,ACTTTCAA,0.137

row,Sequence,PBM E-score
1,GTAACCAA,0.122
2,GATAAGAC,0.0888
3,GACGTAAA,-0.0587
4,ACACCGGA,-0.0946
5,GCCTGCGC,-0.358
6,GCTGCGTA,-0.091
7,GCGCGGAA,0.0282
8,CAGGTGTA,7e-05
9,GAGACGCA,-0.0768
10,GTCCAATA,-0.00812
11,GAAGGGCC,-0.351
12,CAGTGAAC,0.0188
13,CTATAAGC,-0.0362
14,AAGAAAAT,0.331
15,CGCAATCA,0.0422
16,CAGGTACG,-0.247
17,ATGGCTAC,-0.0319
18,CAAGCGTC,-0.0144
19,AGGCGGGA,-0.117
20,CATGCGGG,-0.212
21,GAGACATC,-0.142
22,GACTACTA,0.122
23,ACTGTAAG,0.0768
24,ACTTAAAT,0.212
25,CGCCCACC,-0.176

row,Sequence,PBM E-score
1,TCGTAGCA,0.0654
2,GTGTTAAC,0.122
3,TATAGTGA,0.144
4,GGAGAGAC,-0.0678
5,ATAAAGAT,0.212
6,GCCCTACA,-0.0157
7,ACTTAGAC,0.131
8,AGCTTGTA,0.156
9,ATGGGAAC,-0.123
10,ATTCCGAA,0.32
11,CCCTATCG,-0.263
12,ACTTAGTC,0.0758
13,CACGGAAC,0.114
14,GCATCTAA,0.0869
15,CGTATAGA,0.00324
16,AGAAAGGC,-0.0858
17,TCTAGCAA,0.14
18,CGTCCTTC,-0.0261
19,GGACACAA,0.163
20,CAGTCGCG,-0.189
21,ATAGCGGG,-0.124
22,CCTACCAC,-0.155
23,CATCATAG,0.087
24,ACGCAGTA,0.0216
25,CTCTGCTA,-0.239

row,Sequence,PBM E-score
1,CCGTGAGA,-0.363
2,GGATGTCA,0.109
3,ATGCTCAA,0.102
4,ATCACTGG,-0.0231
5,CACGTTTC,-0.222
6,ATCTTGCG,0.0267
7,ACTAGCAA,0.0128
8,CGTGGTGA,-0.128
9,CCACACAA,0.033
10,CATCCAGA,-0.00544
11,ACCCGATA,-0.132
12,AGCCCACT,-0.192
13,CGGCGCGA,0.0349
14,CCACGCCA,-0.123
15,GCTGGTAC,-0.187
16,ACGCGGAC,-0.195
17,CTTGTAGC,-0.0215
18,AGCCCCCT,-0.418
19,GTCGTAGA,0.029
20,ACGGTGCT,-0.196
21,CGGCAAGA,-0.0437
22,CCGGGTCG,-0.279
23,GGCACTAA,-0.0615
24,AGGATGAT,0.213
25,ACCGGATG,0.0683

row,Sequence,PBM E-score
1,GGCATCCC,-0.344
2,GGCTCAGA,0.0748
3,CGACGCGA,-0.0933
4,ACTTTGAT,0.084
5,GAGTGTTA,0.138
6,AAAGTACA,0.055
7,ACATCCAC,0.137
8,AGCCGTCC,-0.0864
9,GGTGCTGA,-0.181
10,AATGGTAC,0.145
11,AAAAATAG,0.296
12,CTATGCGC,0.0143
13,AGCTCCTA,-0.147
14,TCTGATCA,0.0867
15,GAGGGCTA,-0.222
16,GAGCATCA,-0.0851
17,TCTCGCAA,-0.0365
18,GCTTTTCC,-0.0473
19,CAACCTTC,-0.00721
20,AGTAAGCA,0.0587
21,ACAATCTA,0.151
22,GGGATGCA,-0.163
23,GCTTAGCC,-0.192
24,CATCTGGG,-0.0895
25,ACGGCTTA,0.017

row,Sequence,PBM E-score
1,CGCACACC,-0.0199
2,AACTAGAG,0.0385
3,TGACTGAA,-0.172
4,ATCTACCG,-0.0234
5,AGACACGA,-0.0115
6,ACTAGAGG,-0.155
7,ATCACTCA,0.146
8,GATCTAAA,0.053
9,GGGAGCGA,-0.261
10,GACTCGCC,-0.288
11,GATACTCA,0.118
12,CCGAGTGA,-0.017
13,ACAACACG,-0.133
14,TTAGGCAA,0.0136
15,CCATACGG,-0.148
16,AATTACAA,0.107
17,AGATTTAT,0.249
18,GGGGACGA,-0.0926
19,AACATAAA,0.11
20,GGCAAGCC,-0.303
21,AAACTTCT,0.281
22,AATTTGTG,0.254
23,AAGGACAA,0.021
24,AACGCACT,0.0537
25,CTGGGACA,-0.222

row,Sequence,PBM E-score
1,CCGGCTAA,-0.0556
2,GTAGCGCA,0.112
3,GCGTATTA,0.182
4,TAGCGCAA,0.153
5,ACGGTCTC,-0.152
6,AGTACGCC,-0.141
7,GGGTAGTA,-0.153
8,CACATCAG,-0.105
9,ATTAGTCG,0.0932
10,ACTCCCTA,0.0398
11,CGGCTTAG,-0.0372
12,CCTAACAC,0.151
13,GTCGTCGA,-0.0776
14,CACCCGAA,0.139
15,AATGCCGA,0.0273
16,AGCGCCGC,-0.328
17,ACGAAATG,0.0703
18,AGCAGAGA,-0.152
19,GGCGAAAA,0.171
20,GAAGTCCA,-0.108
21,CCATCGCG,0.114
22,GCATTTAA,0.117
